Measurements as given in a collection of fitness landscapes (doi:10.1016/j.celrep.2020.107928).
Whole data set: some 81,000 sequences, median “one-hybrid fitness for binding NBS DNA” near -0.1, cut for the highest 2% near 0.36. This is one part of the list.

B1: Caulobacter ParB omega fusion; a variant is named by its letters at X, in order, B8GW30 (parent)
chain: MESVVVGEPGMSEGRRGLGRGLSALLGEVDAAPAQAPGEQLGGSREAPIEILQRNPDQPRRTFREEDLEDLSNSIREKGVLQPILVRPSPDTAGEYQIVAGERAWRAAQRAGLKTVPIMVRELDDLAVLEIGIIENVQRADLNVLEEALSYKVLMEKFERTQENIAQTIGKSXSHVANXMRLLXLPDEVQSYLVSGELTAXHARAIAAAADPVALAKQIIEGGLSVRETEALARKAPNLSAGKSKGGRPPRVKDTDTQALESDLSSVLGLDVSIDHRGSTGTLTITYATLEQLDDLCNRLTRGI

Variants of: B1
Assay: one-hybrid fitness for binding NBS DNA (the Noc-binding site; scaled: cognate 1, non-cognate 0); higher = stronger binding
Settings: with NBS DNA site
Procedure, shortened: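 Pre- and post-selection plasmids were Illumina-sequenced, three replicate libraries were pooled, and any variant with under 10 reads was removed. The libraries were Caulobacter ParB with four specificity codons randomised, selected in E. coli USO through a HIS3 reporter whose site is 19 bp from the promoter. Cells grew 48 hours at 37°C on M9 without histidine, with 0.1 mM IPTG and 5 mM 3-AT. Fitness is the log change in variant-to-wild-type read ratio, rescaled against cognate and non-cognate.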

Row | Variant | one-hybrid fitness for binding NBS DNA
1 | PVLE | ≤ 0.2
2 | HFKS | ≤ 0.2
3 | SHME | ≤ 0.2
4 | MPTL | ≤ 0.2
5 | MPLD | ≤ 0.2
6 | KRQQ | ≤ 0.2
7 | AMCC | ≤ 0.2
8 | HMIT | ≤ 0.2
9 | TKHA | ≤ 0.2
10 | YMPV | ≤ 0.2
11 | YWTT | ≤ 0.2
12 | CHCG | ≤ 0.2
13 | TFPP | ≤ 0.2
14 | TVLR | ≤ 0.2
15 | HFIG | ≤ 0.2
16 | NIYR | ≤ 0.2
17 | MFLM | ≤ 0.2
18 | VWPP | ≤ 0.2
19 | VLRY | ≤ 0.2
20 | QFSY | ≤ 0.2
21 | YSDR | ≤ 0.2
22 | WWES | ≤ 0.2
23 | LTYY | ≤ 0.2
24 | AHYL | ≤ 0.2
25 | DDAR | ≤ 0.2
26 | SAAR | ≤ 0.2

Row | Variant | one-hybrid fitness for binding NBS DNA
27 | NCCL | ≤ 0.2
28 | DMDL | ≤ 0.2
29 | RFFM | ≤ 0.2
30 | KCND | ≤ 0.2
31 | DPGM | ≤ 0.2
32 | CTQV | ≤ 0.2
33 | GVIV | ≤ 0.2
34 | EEVS | ≤ 0.2
35 | ESPG | ≤ 0.2
36 | PFEG | ≤ 0.2
37 | RDIS | ≤ 0.2
38 | ICKC | ≤ 0.2
39 | RCIN | ≤ 0.2
40 | VQLT | ≤ 0.2
41 | DPHK | ≤ 0.2
42 | IARG | ≤ 0.2
43 | ACSM | ≤ 0.2
44 | FQHC | ≤ 0.2
45 | IKLS | ≤ 0.2
46 | MCPM | ≤ 0.2
47 | GGRM | ≤ 0.2
48 | QGWW | 0.228
49 | EGNC | ≤ 0.2
50 | DKRT | ≤ 0.2
51 | SLMC | ≤ 0.2
52 | YQPL | ≤ 0.2

Row | Variant | one-hybrid fitness for binding NBS DNA
53 | DAER | ≤ 0.2
54 | MLER | ≤ 0.2
55 | YNQM | ≤ 0.2
56 | CIIC | ≤ 0.2
57 | TNTF | ≤ 0.2
58 | CDDS | ≤ 0.2
59 | PQNF | ≤ 0.2
60 | NCFP | ≤ 0.2
61 | KELD | ≤ 0.2
62 | RNNR | 0.381
63 | LLPW | ≤ 0.2
64 | LIVM | ≤ 0.2
65 | CRSH | ≤ 0.2
66 | MARF | ≤ 0.2
67 | IIMT | ≤ 0.2
68 | QNAY | ≤ 0.2
69 | RHKF | ≤ 0.2
70 | YPRI | ≤ 0.2
71 | QKWL | ≤ 0.2
72 | PSDY | ≤ 0.2
73 | PDDY | ≤ 0.2
74 | FLVY | ≤ 0.2
75 | QREP | ≤ 0.2
76 | RRPV | ≤ 0.2
